# Experimental data published in PMC4336329 (PLoS ONE, 2015).
# In all, about 310,000 compounds went through this assay and about 14,000 (4.5%) showed an effect of 50% or more. The effect is printed as a negative number. This is one part of the list.
# Target: human ether-à-go-go-related gene (hERG) potassium channel (human, UniProt Q12809)
# Assay: primary screen, population patch clamp on CHO cells stably expressing hERG
# 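Note: peak tail current of the secondary pulse compared with the same well before compound.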
# Chain of human ether-à-go-go-related gene (hERG) potassium channel (Q12809 whole entry, looked up): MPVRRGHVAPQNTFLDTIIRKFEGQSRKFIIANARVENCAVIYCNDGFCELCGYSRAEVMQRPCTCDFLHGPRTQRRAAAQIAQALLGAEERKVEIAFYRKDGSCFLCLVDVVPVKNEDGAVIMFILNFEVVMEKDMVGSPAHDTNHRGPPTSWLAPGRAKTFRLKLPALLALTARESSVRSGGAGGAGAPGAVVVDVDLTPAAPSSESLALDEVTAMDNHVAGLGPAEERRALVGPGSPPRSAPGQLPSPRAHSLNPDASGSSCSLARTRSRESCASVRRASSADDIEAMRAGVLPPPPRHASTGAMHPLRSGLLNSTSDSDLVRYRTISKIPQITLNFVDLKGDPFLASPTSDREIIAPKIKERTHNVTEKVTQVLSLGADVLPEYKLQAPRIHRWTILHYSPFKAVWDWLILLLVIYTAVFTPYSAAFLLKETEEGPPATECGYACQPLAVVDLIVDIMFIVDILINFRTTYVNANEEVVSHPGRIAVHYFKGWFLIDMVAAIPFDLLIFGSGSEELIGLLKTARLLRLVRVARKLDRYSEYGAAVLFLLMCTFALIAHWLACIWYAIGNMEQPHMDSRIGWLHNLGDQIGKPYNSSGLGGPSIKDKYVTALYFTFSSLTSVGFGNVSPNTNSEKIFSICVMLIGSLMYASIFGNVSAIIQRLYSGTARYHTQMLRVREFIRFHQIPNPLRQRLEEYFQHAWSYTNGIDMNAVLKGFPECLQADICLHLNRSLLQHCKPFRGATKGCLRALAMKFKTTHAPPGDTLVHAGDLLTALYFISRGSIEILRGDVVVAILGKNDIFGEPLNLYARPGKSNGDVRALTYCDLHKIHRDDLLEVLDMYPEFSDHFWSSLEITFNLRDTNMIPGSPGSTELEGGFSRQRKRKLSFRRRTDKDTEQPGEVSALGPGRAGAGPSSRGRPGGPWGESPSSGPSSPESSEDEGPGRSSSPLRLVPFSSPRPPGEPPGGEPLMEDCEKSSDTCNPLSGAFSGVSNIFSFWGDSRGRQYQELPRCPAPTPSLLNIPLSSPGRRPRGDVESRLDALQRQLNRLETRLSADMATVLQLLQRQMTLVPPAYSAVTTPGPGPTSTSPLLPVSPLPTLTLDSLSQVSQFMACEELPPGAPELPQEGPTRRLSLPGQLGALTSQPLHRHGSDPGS
row,SMILES,"hERG current change (%, negative = inhibition) at 10uM [%]"
1,CCS(=O)(=O)c1nc(S(=O)(=O)c2ccc(C)cc2)c(N2CCCC2)s1,12.1
2,Nc1c(N(Cc2ccco2)C(=O)COc2ccccc2)c(=O)[nH]c(=O)n1Cc1ccccc1,12.8
3,O=C(COc1ncnc2ccccc12)Nc1cccc(S(=O)(=O)N2CCOCC2)c1,-0.51
4,Cc1ccc(/C=C/C(=O)N2CCc3ccccc3C2)cc1,-6.8
5,COCCn1c(C)cc(C(=O)CSc2n[nH]c(N)n2)c1C,21.4
6,CC1CCC2(CC1)NC(=O)N(Cc1nc(-c3ccccc3)no1)C2=O (stereo not drawn),-3.34
7,CCOC(=O)Cc1csc(SCc2nc3sc4c(c3c(=O)[nH]2)CCC4)n1,-0.59
8,CCCCNC(=O)Nc1cc(C)on1,-7.32
9,CCN(Cc1ccccc1)C(=O)c1c(-c2ccccc2Cl)noc1C,-9.34
10,Cl.c1ccc(Cn2nnnc2C(c2cccs2)N2CCOCC2)cc1 (stereo not drawn),8.91
11,Cn1ccs/c1=N\C(=O)Nc1cccc(Cl)c1,0.433
12,COc1ccc(-c2cc(-c3cc(OC)ccc3O)[nH]n2)cc1,16
13,CC(/C=N/NC(=O)Cn1cnc2c1c(=O)n(C)c(=O)n2C)=C\c1ccccc1,4.35
14,OCCC1CN(Cc2cccn2-c2ncccn2)CCN1Cc1ccccc1 (stereo not drawn),-64.2
15,COCCCNCCOCCOc1ccccc1-c1ccccc1.O=C(O)C(=O)O,-29.4
16,Nc1ccc(O)c(-c2nc3ccccc3s2)c1,2.48
17,Cn1c(SCC(=O)NC2CCCCC2)nnc1-c1ccc(N)cc1,13.9
18,CC(C)CNC(=O)CSc1nnc(-c2ccccn2)n1Cc1ccccc1,-4.82
19,CCOc1ccc(C2C(C#N)=C(N)Oc3nc[nH]c(=O)c32)cc1 (stereo not drawn),12.1
20,Cc1cc(CN(C)C(=O)c2ccc(OC3CCN(Cc4ccccn4)CC3)cc2)on1,-37.7
21,COc1ccc(CNc2nc3ccccc3n2Cc2ccc(C)cc2)cc1OC,-19.8

row,SMILES,"hERG current change (%, negative = inhibition) at 10uM [%]"
1,CCN(CC(=O)NCc1ccc(F)cc1)CC(=O)Nc1ccccc1-c1ccccc1,-16
2,CCc1nc(N2CCN(Cc3ccc4c(c3)OCO4)CC2)c2oc3ccccc3c2n1.Cl,-5.03
3,COc1cc(CCC(=O)N2CCN(S(=O)(=O)c3ccc(C)c(C)c3)CC2)cc(OC)c1OC,8.91
4,CCOC(=O)c1c(-c2ccc(F)cc2)csc1NC(=O)C1CCCO1 (stereo not drawn),-5.36
5,Cc1cc(C(=O)N(C)Cc2ccc(Br)cc2)no1,-7.52
6,COc1ccc(OCCn2ccnc2C)cc1.O=C(O)C(=O)O,-0.197
7,CCc1cc2c(=O)c(-c3nc4ccccc4n3C)c(C)oc2c(CN2CCN(CCO)CC2)c1O,4.5
8,COc1cc(/C=N/NC(=O)C2CCN(CC(O)COCc3ccccc3)CC2)cc(OC)c1OC (stereo not drawn),-71.7
9,C=C1C2[C@H](OC(C)=O)[C@@H]3CC(=O)[C@]4(C)OC[C@@]3(C)[C@@]4(O)[C@@H](OC(C)=O)[C@H](OC(C)=O)[C@@]2(COC(=O)c2ccccc2)[C@@H](OC(C)=O)C[C@@H]1O (stereo partly drawn),5.03
10,COc1ccc(CCNC(C(=O)Nc2cc(C)cc(C)c2)c2ccccc2)cc1 (stereo not drawn),9.1
11,CCOC(=O)N1CCN(CC(O)c2c[nH]c3ccc(OC)cc23)CC1 (stereo not drawn),8.02
12,NC(=S)NNc1cccc(Cl)c1,8.03
13,COc1ccc(NC(=O)c2cccc(S(=O)(=O)N3CCN(C)CC3)c2)c(OC)c1,-4.23
14,Cc1ccc(C2(O)C(=O)c3ccccc3C2=O)c(O)c1C,-3.83
15,O=C(CSc1nc(C2CC2)nc2ccccc12)Nc1ccccc1,-1.27
16,O=C(Nc1ccccc1)Nc1ccc(NC(=O)c2ccccc2O)cc1,13.6
17,COCCCNC(=S)N1CCN(c2nc(-c3cccc(OC)c3)cs2)CC1,10.7
18,COc1ccc(N(CC(=O)Nc2cc(OC)c(OC)cc2C(=O)O)S(=O)(=O)c2c(C)noc2C)cc1,15.9
19,CC1=C(C(=O)OCc2ccccc2)C(c2cccnc2)n2nnnc2N1 (stereo not drawn),-6.94
20,O=C(CCNC(=O)c1ccc(Cl)cc1)NCCCN1CCOCC1,4.31
21,CN(C(=O)CSc1nnc(-c2ccc(F)cc2)c2ccccc12)C1CCS(=O)(=O)C1 (stereo not drawn),-46.2
